Reference: PMC3916391 (PLoS Pathogens, 2014)

Biological target: T1, putidacin L1 (Pseudomonas putida, UniProt Q8GEJ9)
T1 construct: gene llpA
Assay: biochemical

Compound `C[C@H]1OC(O)[C@@H](O)[C@@H](O)[C@@H]1O` (stereo partly drawn) [D-rhamnose] has a Kd of 5 to 10 mM.
